The other results are listed elsewhere or left out. At the low end of the ranking the order means little.
The sequences below were run on MYC (p64) + MAX (p21), in MYC:MAX (assay: protein-binding microarray (anti-MAX antibody)). Settings: PBM: 15 mM Tris-HCl pH 7.5, 100 mM KCl, 0.075% NP40, 7.5 mM beta-mercaptoethanol, 375 ng/ul BSA, 8 ng/ul poly(dA-dT):(dA-dT), 550 ng complex, 60 min, room …; high values mean tight binding; double strand, one strand shown; sequences stand for … in CCGGC…TTAATAGCTAAGATTACTATATCGACG.

Sequence	binding signal (log2 normalized fluorescence)
TGATACGTGATA	0.107
TGACACGTCTCA	0.462
TGACCTCCGGTA	-0.0525
TGAACCCAGGTA	0.207
TGATATAGGGTA	-0.0127
TGACACGTGCAA	0.779
TGACACACGTTA	0.532
TATAACGTGGTA	0.627
TGACACGTTGCG	0.491
TGAAGCCTAGTA	-0.229
TAATACGTGGTA	0.38
TGAGTAAGTGTA	-0.0298
TGATCGGAGGTA	-0.0816
AAGGACGTGGTT	0.419
TGAATATGGGTA	0.0891
TGAATATGTGTA	0.145
TGAGAGTAGGTA	-0.165
TGAATGGTGGTA	0.205
TGAGGGGCGGTA	0.593
TGAACACGAGTA	0.44
TGACTACTGGTA	0.0391
TGATAACTAGTA	-0.129
TGATATCAGGTA	0.107
TGATTGCGAGTA	-0.0261
TGAACTGAGGTA	-0.0372
TGACACGATCTA	0.385
TGAGGTGGTGTA	0.00542

Sequence	binding signal (log2 normalized fluorescence)
TGAGGTCGGGTA	-0.142
TGACAAATCGTA	0.0848
TGAAGCCCCGTA	0.000961
TGATACCTTGTA	0.113
TGAGAATCAGTA	-0.0698
TGATGGACCGTA	0.119
TGACTAATTGTA	-0.0207
TGAGGCGTTGTA	0.118
TGATAAAGCGTA	-0.175
TGAACGGAGGTA	-0.0159
CGACACGGGGTC	0.594
TGGGACGTGGTA	0.237
TGACGCCACGTA	0.312
TGAGGCGCCGTA	0.195
TGATCAGCCGTA	0.0261
TGATGATATGTA	0.0143
TGACACGTGTCT	0.735
TGAATCGTAGTA	0.112
TGAACGAGTGTA	0.0924
TGAATTAGTGTA	0.0274
TGACACCTAGTA	0.141
TGAGAGGGGGTA	0.749
TGAAGCTAGGTA	-0.0387
TGAAACACTGTA	0.309
TGATCATTTGTA	0.247
TGTTTCGTGGTA	0.0525
